Data: patent publication US11000038B2, “Pyridone compounds and agricultural and horticultural fungicides containing the same as active ingredients” (priority 2017, dated 2021)

Experiments:
[1] = tested on: cabbage Alternaria sooty spot fungi (Alternaia brassicicola); experiment: Test Example C: cabbage Alternaria sooty spot, spray treatment of cabbage plants; type: in vivo; settings: cabbage Alternaria sooty spot
Source text: [Test Example C] Cabbage Alternaria Sooty Spot
Test plants (cabbage variety: Shikidori) were cultivated until the cotyledons extended after the sowing of seeds.
<Control Value> Control value=100{1−(n/3)}

[2] = tested on: gray mold fungi (Botrytis cinerea); experiment: Test Example B: tomato gray mold, spray treatment of tomato plants; settings: tomato gray mold
[3] = tested on: grape downy mildew fungus (Plasmopara viticola); experiment: Test Example G: grape downy mildew, spray treatment of grape plants; settings: grape downy mildew, 7 to 10 days after inoculation
[4] = tested on: barley powdery mildew fungi (Blumeria graminis f. sp. hordei); experiment: Test Example D: barley powdery mildew, spray treatment of barley plants; settings: barley powdery mildew
[5] = tested on: wheat brown rust fungi (Puccinia recondita); experiment: Test Example E: wheat brown rust, spray treatment of wheat plants; type: in vivo; settings: wheat brown rust, spray treatment
[6] = spray treatment of cabbage plants
[7] = spray treatment of tomato plants
[8] = spray treatment of barley plants

## COc1cc(F)c(-c2c(C)c(=O)c(Br)cn2-c2ccccc2C)c(F)c1 [Compound 266]
[1]; [6]
  Test C control value: H (H shows the control value of more than 50%)
[2]; [7]
  Test B control value: H (H shows the control value of more than 50%)
[3]; 250 ppm spray (2.5 ml/pot)
  Test G control value: H (H shows the control value of more than 50%)
[4]; [8]
  Test D control value: H (H shows the control value of more than 50%)

## Cc1cc(F)ccc1-n1cc(Br)c(=O)c(Br)c1-c1c(F)cc(F)cc1F [Compound 273]
[1]; [6]
  Test C control value: H (H shows the control value of more than 50%)
[2]; [7]
  Test B control value: H (H shows the control value of more than 50%)
[3]; 250 ppm spray (2.5 ml/pot)
  Test G control value: L (L shows the control value of 50% or less)
[4]; [8]
  Test D control value: H (H shows the control value of more than 50%)

## COCCOc1ccc(C)c(-n2cc(Cl)c(=O)c(Cl)c2-c2c(F)cc(F)cc2F)c1 [Compound 295]
[1]; [6]
  Test C control value: H (H shows the control value of more than 50%)
[2]; [7]
  Test B control value: H (H shows the control value of more than 50%)
[3]; 250 ppm spray (2.5 ml/pot)
  Test G control value: L (L shows the control value of 50% or less)
[4]; [8]
  Test D control value: H (H shows the control value of more than 50%)

## Cc1c(N(C)C)cccc1-n1cc(Br)c(=O)c(Cl)c1-c1c(F)cc(F)cc1F [Compound 335]
[1]; [6]
  Test C control value: H (H shows the control value of more than 50%)
[2]; [7]
  Test B control value: H (H shows the control value of more than 50%)
[3]; 250 ppm spray (2.5 ml/pot)
  Test G control value: H (H shows the control value of more than 50%)
[4]; [8]
  Test D control value: L (L shows the control value of 50% or less)

## C=CCOc1cc(F)c(-c2c(C)c(=O)c(C)cn2-c2cc(C)ccc2C)c(F)c1 [Compound 405]
[1]; spray treatment
  Test C control value: H (H shows the control value of more than 50%)
[2]; spray treatment
  Test B control value: H (H shows the control value of more than 50%)
[3]; 250 ppm spray
  Test G control value: L (L shows the control value of 50% or less)
[4]; spray treatment
  Test D control value: H (H shows the control value of more than 50%)

## Cc1c(-n2cc(C)c(=O)c(C)c2-c2c(F)cc(F)cc2F)ccc(Br)c1[N+](=O)[O-] [Compound 425]
[1]; spray treatment
  Test C control value: L (L shows the control value of 50% or less)
[2]; spray treatment
  Test B control value: L (L shows the control value of 50% or less)
[3]; 250 ppm spray
  Test G control value: H (H shows the control value of more than 50%)
[4]; spray treatment
  Test D control value: L (L shows the control value of 50% or less)

## Cc1cn(-c2ccccc2)c(-c2ccccc2F)c(C)c1=O [Compound 471]
[2]; spray treatment
  Test B control value: H (H shows the control value of more than 50%)
[5]
  Test E control value: H (H shows the control value of more than 50%)
[3]; 250 ppm spray
  Test G control value: L (L shows the control value of 50% or less)
[4]; spray treatment
  Test D control value: H (H shows the control value of more than 50%)

## CCc1ccccc1-n1cc(Br)c(=O)c(CC)c1-c1c(F)cccc1F [Compound 509]
[2]; spray treatment
  Test B control value: H (H shows the control value of more than 50%)
[5]
  Test E control value: H (H shows the control value of more than 50%)
[3]; 250 ppm spray
  Test G control value: L (L shows the control value of 50% or less)
[4]; spray treatment
  Test D control value: H (H shows the control value of more than 50%)

## COc1cccc(-n2cc(C)c(=O)c(C)c2-c2c(F)cccc2F)c1C [Compound 523]
[2]; spray treatment
  Test B control value: H (H shows the control value of more than 50%)
[5]
  Test E control value: H (H shows the control value of more than 50%)
[3]; 250 ppm spray
  Test G control value: H (H shows the control value of more than 50%)
[4]; spray treatment
  Test D control value: H (H shows the control value of more than 50%)

## CCc1c(-c2ccccc2)n(-c2cc(OC)ccc2C)cc(C)c1=O [Compound 543]
[2]; spray treatment
  Test B control value: H (H shows the control value of more than 50%)
[5]
  Test E control value: H (H shows the control value of more than 50%)
[3]; 250 ppm spray
  Test G control value: L (L shows the control value of 50% or less)
[4]; spray treatment
  Test D control value: H (H shows the control value of more than 50%)

## COc1cccc(-n2cc(C)c(=O)c(C)c2-c2ccccc2)c1C [Compound 546]
[2]; spray treatment
  Test B control value: H (H shows the control value of more than 50%)
[5]
  Test E control value: H (H shows the control value of more than 50%)
[3]; 250 ppm spray
  Test G control value: L (L shows the control value of 50% or less)
[4]; spray treatment
  Test D control value: H (H shows the control value of more than 50%)

## Cc1c(Br)cccc1-n1cc(C)c(=O)c(C)c1-c1ccccc1 [Compound 565]
[2]; spray treatment
  Test B control value: H (H shows the control value of more than 50%)
[5]
  Test E control value: H (H shows the control value of more than 50%)
[3]; 250 ppm spray
  Test G control value: H (H shows the control value of more than 50%)
[4]; spray treatment
  Test D control value: L (L shows the control value of 50% or less)

## O=c1c(Br)cn(-c2ccccc2)c(-c2ccccc2Br)c1Cl [Compound 576]
[2]; spray treatment
  Test B control value: H (H shows the control value of more than 50%)
[5]
  Test E control value: H (H shows the control value of more than 50%)
[3]; 250 ppm spray
  Test G control value: L (L shows the control value of 50% or less)
[4]; spray treatment
  Test D control value: L (L shows the control value of 50% or less)

## COc1cccc(F)c1-c1c(C)c(=O)c(C)cn1-c1ccccc1 [Compound 591]
[2]; spray treatment
  Test B control value: L (L shows the control value of 50% or less)
[5]
  Test E control value: L (L shows the control value of 50% or less)
[3]; 250 ppm spray
  Test G control value: H (H shows the control value of more than 50%)
[4]; spray treatment
  Test D control value: L (L shows the control value of 50% or less)

## O=c1c(Br)cn(-c2ccccc2)c(-c2ccccc2C(F)(F)F)c1Cl [Compound 600]
[2]; spray treatment
  Test B control value: L (L shows the control value of 50% or less)
[5]
  Test E control value: L (L shows the control value of 50% or less)
[3]; 250 ppm spray
  Test G control value: L (L shows the control value of 50% or less)
[4]; spray treatment
  Test D control value: L (L shows the control value of 50% or less)

## Cc1cn(-c2ccccc2)c(-c2cc(F)ccc2F)c(C)c1=O [Compound 614]
[2]; spray treatment
  Test B control value: H (H shows the control value of more than 50%)
[5]
  Test E control value: H (H shows the control value of more than 50%)
[3]; 250 ppm spray
  Test G control value: L (L shows the control value of 50% or less)
[4]; spray treatment
  Test D control value: H (H shows the control value of more than 50%)

## Cc1cn(-c2ccccc2)c(-c2cc(Cl)cc(Cl)c2)c(C)c1=O [Compound 624]
[2]; spray treatment
  Test B control value: H (H shows the control value of more than 50%)
[5]
  Test E control value: L (L shows the control value of 50% or less)
[3]; 250 ppm spray
  Test G control value: L (L shows the control value of 50% or less)
[4]; spray treatment
  Test D control value: L (L shows the control value of 50% or less)
